Assay results taken from the supplement of paper PMC12889115.
The other results are listed elsewhere or left out. No stated cut-off is given here; in the data, active = 25% or less and inactive = the rest. Most values come without repeats; read them as rough.

Legend:
[1] = tested on: Salmonella enterica serovar Typhimurium SL1344; assay: bacterial growth OD600 after 18 h in MHB with 0.5 µg/mL polymyxin B; higher = more bacterial growth (less inhibition); conditions: 25 µM; polymyxin B 0.5 µg/mL; system: broth
Description: (§1)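 Secondary screen of the 553 primary hits at 25 µM. (i) S. Typhimurium SL1344 grown in Mueller-Hinton broth with 0.5 µg/mL polymyxin B, OD600 read after 18 h. (ii) SAFIRE assay: RAW 264.7 macrophages infected with S. Typhimurium sifB::gfp (MOI 30); compound added 2 h post-infection; cells fixed at 18 h; GFP-positive pixel fraction per macrophage imaged by confocal microscopy and expressed as % of DMSO control.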

[2] = tested on: Salmonella enterica serovar Typhimurium SL1344; assay: intramacrophage bacterial GFP load (SAFIRE), percent of DMSO control (% of DMSO); higher = more intracellular bacteria (less inhibition); conditions: 25 µM; system: infected RAW 264.7 macrophages
Description: as §1
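Wherever bacterial growth OD600 after 18 h in MHB with 0.5 µg/mL polymyxin B is given: polymyxin B level opens the outer membrane while sparing the inner membrane, with novobiocin wells as reference growth inhibitor.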
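Wherever intramacrophage bacterial GFP load (SAFIRE), percent of DMSO control is given: compounds tested were the hits of an earlier 50 µM broth growth screen of a drug-like diversity library run with polymyxin B.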

CCN(Cc1ccccc1)C(=O)CC1(c2cccc(C(F)(F)F)c2)CC(=O)N(C2CC2)C1=O (stereo not given)
bacterial growth OD600 [1]: -0.015
intramacrophage bacterial GFP load [2]: inactive: 91.6

CCOC(=O)C1(Cc2ccc(Cl)cc2)CCN(C(=O)NC(C)(C)C)CC1
bacterial growth OD600 [1]: 0.003
intramacrophage bacterial GFP load [2]: inactive: 55.5

Cc1ccc2c(c1)CN(CC(=O)NCC1(c3ccccc3)CCOCC1)CC(c1ccsc1)O2 (stereo not given)
bacterial growth OD600 [1]: -0.004
intramacrophage bacterial GFP load [2]: inactive: 113

COC(c1ccc2c(c1)CN(C(=O)c1cccc(C#CC(C)(C)O)c1)CCO2)C1CCCCC1 (stereo not given)
bacterial growth OD600 [1]: 0
intramacrophage bacterial GFP load [2]: inactive: 54.9

Cc1ccc2c(c1)CN(Cc1ccncc1)CC(c1ccsc1)O2 (stereo not given)
bacterial growth OD600 [1]: 0.38
intramacrophage bacterial GFP load [2]: inactive: 90.4
